Test results reported in PMC7956344, “Structure Elucidation and Cholinesterase Inhibition Activity of Two New Minor Amaryllidaceae Alkaloids” (Molecules, 2021).

What was measured:
[1] = biological target: T1, human acetylcholinesterase (hAChE) (Homo sapiens, UniProt P22303); details: previously isolated narcikachnine-type alkaloids, cited from earlier work
[2] = biological target: T1, human acetylcholinesterase (hAChE); test: biochemical; details: for IC50: mean ± SEM of three independent measurements, each in triplicate; for % Inhibition hAChE ± SEM / inhibition at 100 µM: tested at 100 µM compound concentration; for % Inhibition hAChE ± SEM: 100 µM; for inhibition at 100 µM: read-out: % Inhibition hAChE ± SEM

For `COc1ccc2c3c1OC1CC(O)CCC31CCN(Cc1cc3c(cc1-c1cccc4ccn(C)c14)OCO3)C2` (centres unmarked) [narcipavline], the IC50 [1] is given as 208 ± 37 µM and the IC50 ([1]; listed as Narcipavline) is given as > 200 µM.
For `COc1cc(-c2cccc3c2N(C)CC3)c(CN2CC[C@@]34C=C[C@H](O)C[C@@H]3Oc3c(OC)ccc(c34)C2)cc1O` [narciabduliine (2), narciabduliine], the IC50 [2] was 3.29 ± 0.73 µM, the “% Inhibition hAChE ± SEM” value [2] was 94.7 ± 0.7% and the inhibition at 100 µM [2] was > 90%.
In the case of `COc1cc2c(cc1O)[C@@H](O)O[C@@H]1CC=C3CCN(C)[C@H]3[C@H]21` [9-O-demethyllycorenine (1), 9-O-demethyllycorenine], the IC50 [2] is reported as > 100 µM, the “% Inhibition hAChE ± SEM” value [2] is reported as “almost devoid of cholinesterase inhibitory activity” and the inhibition at 100 µM [2] is reported as 3.1 ± 1.2%.

Where two headings read alike, the source gives them in different places.
